Laboratory results published in US11155556B2, “Pyrimido-diazepinone kinase scaffold compounds and methods for treating PI3K-mediated disorders” (DANA-FARBER CANCER INSTITUTE, INC., priority 2016, dated 2021).

How the values were obtained:
[1] = molecular target: Aurora B (Homo sapiens (Human), UniProt Q96GD4); assay: Z'-LYTE kinase assay, Aurora B; type: biochemical; details: for pIC50: Z'LYTE assay format, ATP at Km; for selectivity over Aurora B: ratio of IC50s
Method: (§1) The enzymatic activities against PI3K-α, PI3K-β, PI3K-γ and PI3K-δ were tested in ADAPTA assays. Activity against […] were tested in Z′-Lyte assays. All assays were performed with ATP concentrations of Km for each kinase. BRD4_1 binding was tested using an AlphaScreen assay. All protocols are available from Life Technologies.
as §1, with “against PI3K-α, PI3K-γ and” for “against PI3K-α, PI3K-β, PI3K-γ and”, “assay. All the protocols are” for “assay. All protocols are”

[2] = tested on: Molm14 cells; assay: CellTiter-Glo cell viability assay, Molm14; type: cell-based; details: Homo sapiens, MOLM-14, 72 h, 3 days, average of three replicates
Method: (§2) Cell viability assays were performed using CellTiter-Glo (Promega). Cells were grown in RPMI-10% FBS medium. 600 cells per well were seeded in a 96-well plate and then treated with eight doses of each compound in 3-fold dilution steps ranging from 10 um to 0.0046 uM for 3 days. Wells were imaged using a luminometer. IC50 were determined using Prism software. Data was normalized to a dimethyl sulfoxide (DMSO)-only control.

[3] = molecular target: BRD4_1 (Homo sapiens (Human), UniProt O60885); assay: BRD4_1 AlphaScreen binding assay
Method: as §1
as §1, with “against PI3K-α, PI3K-γ and” for “against PI3K-α, PI3K-β, PI3K-γ and”, “assay. All the protocols are” for “assay. All protocols are”

[4] = molecular target: Aurora A (Homo sapiens (Human), UniProt O14965); assay: Z'-LYTE kinase assay, Aurora A; type: biochemical; details: for pIC50: Z'LYTE assay format, ATP at Km; for selectivity over Aurora A: ratio of IC50s
Method: The enzymatic activities against PI3K-α, PI3K-β, PI3K-γ and PI3K-δ were tested in ADAPTA assays. […] All assays were performed with ATP concentrations of Km for each kinase. BRD4_1 binding was tested using an AlphaScreen assay. All protocols are available from Life Technologies.
The enzymatic activities against PI3K-α, PI3K-γ and PI3K-δ were tested in ADAPTA assays. […] All assays were performed with ATP concentrations of Km for each kinase. BRD4_1 binding was tested using an AlphaScreen assay. All the protocols are available from Life Technologies.

[5] = molecular target: PI3K-β (Homo sapiens (Human), UniProt P42338); assay: ADAPTA kinase assay, PI3K-β; type: biochemical; details: for pIC50: ADAPTA assay format, ATP at Km; for selectivity for PI3K-δ over PI3K-β: ratio of IC50s
Method: as §1
as §1, with “against PI3K-α, PI3K-γ and” for “against PI3K-α, PI3K-β, PI3K-γ and”, “assay. All the protocols are” for “assay. All protocols are”

[6] = tested on: Jurkat cells; assay: CellTiter-Glo proliferation / cell viability assay, Jurkat; type: cell-based; details: Homo sapiens, 72 h, 3 days, average of three replicates
Method: (§3) Proliferation assays were conducted in Jurkat or MOLT4 cell lines using Cell Titer Glo as described in product manual.
as §2

[7] = tested on: patient-derived primary CLL cells; assay: CellTiter-Glo cell viability assay, patient-derived primary CLL cells; type: cell-based; details: Homo sapiens
Method: The CellTiter-Glo assay (Promega) was used to determine the viability of cells from chronic lymphocytic leukemia (CLL) patients at baseline (primary human patient derived CLL cells), upon IgM stimulation, and after drug treatment. IgM stimulation was conducted using AffiniPure F(ab′)2 Fragment Goat Anti-Human IgM (Jackson ImmunoResearch). Cell viability results after drug treatment are presented in FIG. 7A (IgM-stimulated cells) and FIG. 7B (PBS control).

[8] = molecular target: PI3K-α (Homo sapiens (Human), UniProt P42336); assay: ADAPTA kinase assay, PI3K-α; type: biochemical; details: for pIC50: ADAPTA assay format, ATP at Km; for selectivity for PI3K-δ over PI3K-α: ratio of IC50s
Method: as §1
as §1, with “against PI3K-α, PI3K-γ and” for “against PI3K-α, PI3K-β, PI3K-γ and”, “assay. All the protocols are” for “assay. All protocols are”

[9] = tested on: human kinome; assay: KINOMEscan kinome profiling; type: binding; details: for selectivity score S10: KINOMEscan at 1 μM compound concentration
Method: S10 was calculated from KINOMEscan data according to the formula;
Kinome profiling was performed using KinomeSCAN at compound concentration of 1 μM. Protocols are available from DiscovRX.

[10] = tested on: MOLT4 cells; assay: CellTiter-Glo proliferation / cell viability assay, MOLT4; type: cell-based; details: Homo sapiens
Method: as §3, §2

[11] = tested on: Loucy cells; assay: CellTiter-Glo cell viability assay, Loucy; type: cell-based; details: 72 h, 3 days, average of three replicates
Method: as §2

[12] = tested on: PI3K-δ signaling (HMEC expressing CA-p110δ); assay: PI3K cellular signaling assay in isogenic HMEC lines (Western blot); type: cell-based; details: 10 nM concentration, FIG. 4C
Method: HMEC derivative cell lines were serum-starved for 3 hours, then treated with the indicated compounds at 0.01 μM, 0.1 μM, or 1 μM for 1 h. Cell lysates were prepared and subjected to Western blot assays with the indicated antibodies. Du, Duvelisib; Id, Idelalisib.
PI3K cellular signaling assays were performed as previously described (Reference 18).
HMEC derivative cells were cultured as described previously (Ni J, Liu Q, Xie S, et al. Functional characterization of an isoform-selective inhibitor of PI3K-p110beta as a potential anticancer agent. Cancer discovery. 2012; 2(5):425-433).
Western blot analysis was performed as previously described (Reference 1). Anti-phospho-AKT (Thr308) (#4056), anti-phospho-AKT (Ser473) (#4060), anti-AKT (#9272), anti-phospho-S6 ribosomal protein (Ser235/236) (#2211), anti-S6 ribosomal protein (#2217) antibodies were all from Cell Signaling Technology (Hanover, Mass.), and anti-α-tubulin antibody was from Sigma (Rockford, Ill.).

[13] = tested on: MV4:11 cells; assay: CellTiter-Glo cell viability assay, MV4:11; type: cell-based; details: Homo sapiens, MV4-11, 72 h, 3 days, average of three replicates
Method: as §2

[14] = molecular target: PI3K-δ (Homo sapiens (Human), UniProt O00329); assay: LCMS/MS cysteine labeling experiment with purified PI3K-δ protein
From the text: Covalent inhibitors have been reported for PI3K-α that target a non-conserved cysteine unique to this isoform (Reference 14). […] Therefore we sought to remove this reactive functionality from our compounds, whilst maintaining on-target potency and kinome selectivity. Compounds containing an un-substituted sulfonamide nitrogen are equipotent against PI3K-β/γ and AuroraA/B. This holds in the context of both methylated and unmethylated core scaffold (Compounds 14, 16, 17). It has been shown that ortho-substitution adjacent to the hinge-binding motif can remove AuroraA/B activity from this scaffold (Reference 12). […] Gratifyingly compound 9; the propyl-amide analog of the initial hit, and compound 12 both maintained potent inhibition of PI3K-δ/γ.

[15] = MOLT-4, 72 h, cell viability, 3 days, average of three replicates, read-out: IC50 Molt4

Chain of UniProt Q96GD4 (Q96GD4 whole entry): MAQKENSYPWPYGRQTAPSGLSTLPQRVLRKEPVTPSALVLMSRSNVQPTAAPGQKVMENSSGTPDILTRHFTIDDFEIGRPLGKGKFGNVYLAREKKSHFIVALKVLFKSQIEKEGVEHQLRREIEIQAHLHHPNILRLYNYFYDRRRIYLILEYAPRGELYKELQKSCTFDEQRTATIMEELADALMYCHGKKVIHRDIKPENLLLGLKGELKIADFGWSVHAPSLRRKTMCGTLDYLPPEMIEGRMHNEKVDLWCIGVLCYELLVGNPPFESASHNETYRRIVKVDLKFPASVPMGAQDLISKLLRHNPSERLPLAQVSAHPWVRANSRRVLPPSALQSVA
Chain of UniProt P42338 (P42338 whole entry): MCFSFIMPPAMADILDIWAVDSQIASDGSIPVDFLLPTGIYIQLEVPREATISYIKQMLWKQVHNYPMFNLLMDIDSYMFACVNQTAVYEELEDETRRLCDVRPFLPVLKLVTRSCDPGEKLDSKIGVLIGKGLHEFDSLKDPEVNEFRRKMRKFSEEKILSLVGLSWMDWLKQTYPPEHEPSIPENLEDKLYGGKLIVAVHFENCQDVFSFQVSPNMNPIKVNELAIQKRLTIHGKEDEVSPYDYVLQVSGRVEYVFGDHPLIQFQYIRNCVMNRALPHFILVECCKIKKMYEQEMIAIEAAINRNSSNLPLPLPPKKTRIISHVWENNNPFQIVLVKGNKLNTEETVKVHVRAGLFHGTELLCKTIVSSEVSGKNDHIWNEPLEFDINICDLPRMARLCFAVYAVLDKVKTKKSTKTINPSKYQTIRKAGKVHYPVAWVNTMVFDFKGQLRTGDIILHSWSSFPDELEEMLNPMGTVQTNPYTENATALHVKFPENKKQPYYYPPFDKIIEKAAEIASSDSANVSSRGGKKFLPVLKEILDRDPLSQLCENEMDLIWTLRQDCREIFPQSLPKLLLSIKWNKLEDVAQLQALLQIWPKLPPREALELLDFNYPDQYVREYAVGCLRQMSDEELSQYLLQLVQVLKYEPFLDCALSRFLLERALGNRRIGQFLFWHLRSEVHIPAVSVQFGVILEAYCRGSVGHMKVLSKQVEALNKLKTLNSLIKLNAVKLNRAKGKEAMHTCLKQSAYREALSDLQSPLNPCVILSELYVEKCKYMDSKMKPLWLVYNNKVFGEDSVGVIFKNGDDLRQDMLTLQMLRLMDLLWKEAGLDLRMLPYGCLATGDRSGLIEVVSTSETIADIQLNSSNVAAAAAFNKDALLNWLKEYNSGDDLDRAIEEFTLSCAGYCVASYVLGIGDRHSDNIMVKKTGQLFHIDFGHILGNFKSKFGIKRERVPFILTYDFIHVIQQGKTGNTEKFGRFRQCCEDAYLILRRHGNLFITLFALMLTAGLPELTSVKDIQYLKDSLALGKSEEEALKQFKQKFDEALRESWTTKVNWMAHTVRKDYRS
Chain of UniProt P42338 (P27986 whole entry partner): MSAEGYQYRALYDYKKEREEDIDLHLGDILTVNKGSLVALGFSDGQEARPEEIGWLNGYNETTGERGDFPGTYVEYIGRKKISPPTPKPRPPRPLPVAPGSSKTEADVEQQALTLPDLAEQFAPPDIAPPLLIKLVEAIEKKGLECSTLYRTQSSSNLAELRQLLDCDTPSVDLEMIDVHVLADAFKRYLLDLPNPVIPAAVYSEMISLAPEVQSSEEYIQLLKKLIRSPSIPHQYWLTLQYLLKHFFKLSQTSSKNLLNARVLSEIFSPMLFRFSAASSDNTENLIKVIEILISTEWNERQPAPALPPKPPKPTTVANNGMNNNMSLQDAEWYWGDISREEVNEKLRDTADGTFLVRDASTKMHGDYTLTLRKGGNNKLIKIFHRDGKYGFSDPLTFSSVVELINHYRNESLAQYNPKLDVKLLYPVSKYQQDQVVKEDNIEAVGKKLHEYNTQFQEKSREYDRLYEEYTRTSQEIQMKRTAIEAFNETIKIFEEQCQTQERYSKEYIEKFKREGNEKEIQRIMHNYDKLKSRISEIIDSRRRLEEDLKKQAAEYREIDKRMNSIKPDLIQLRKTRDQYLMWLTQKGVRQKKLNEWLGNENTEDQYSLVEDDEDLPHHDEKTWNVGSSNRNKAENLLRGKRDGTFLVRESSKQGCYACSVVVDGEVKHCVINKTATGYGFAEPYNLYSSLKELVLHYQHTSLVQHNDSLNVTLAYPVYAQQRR
Chain of UniProt P42336 (P42336 whole entry): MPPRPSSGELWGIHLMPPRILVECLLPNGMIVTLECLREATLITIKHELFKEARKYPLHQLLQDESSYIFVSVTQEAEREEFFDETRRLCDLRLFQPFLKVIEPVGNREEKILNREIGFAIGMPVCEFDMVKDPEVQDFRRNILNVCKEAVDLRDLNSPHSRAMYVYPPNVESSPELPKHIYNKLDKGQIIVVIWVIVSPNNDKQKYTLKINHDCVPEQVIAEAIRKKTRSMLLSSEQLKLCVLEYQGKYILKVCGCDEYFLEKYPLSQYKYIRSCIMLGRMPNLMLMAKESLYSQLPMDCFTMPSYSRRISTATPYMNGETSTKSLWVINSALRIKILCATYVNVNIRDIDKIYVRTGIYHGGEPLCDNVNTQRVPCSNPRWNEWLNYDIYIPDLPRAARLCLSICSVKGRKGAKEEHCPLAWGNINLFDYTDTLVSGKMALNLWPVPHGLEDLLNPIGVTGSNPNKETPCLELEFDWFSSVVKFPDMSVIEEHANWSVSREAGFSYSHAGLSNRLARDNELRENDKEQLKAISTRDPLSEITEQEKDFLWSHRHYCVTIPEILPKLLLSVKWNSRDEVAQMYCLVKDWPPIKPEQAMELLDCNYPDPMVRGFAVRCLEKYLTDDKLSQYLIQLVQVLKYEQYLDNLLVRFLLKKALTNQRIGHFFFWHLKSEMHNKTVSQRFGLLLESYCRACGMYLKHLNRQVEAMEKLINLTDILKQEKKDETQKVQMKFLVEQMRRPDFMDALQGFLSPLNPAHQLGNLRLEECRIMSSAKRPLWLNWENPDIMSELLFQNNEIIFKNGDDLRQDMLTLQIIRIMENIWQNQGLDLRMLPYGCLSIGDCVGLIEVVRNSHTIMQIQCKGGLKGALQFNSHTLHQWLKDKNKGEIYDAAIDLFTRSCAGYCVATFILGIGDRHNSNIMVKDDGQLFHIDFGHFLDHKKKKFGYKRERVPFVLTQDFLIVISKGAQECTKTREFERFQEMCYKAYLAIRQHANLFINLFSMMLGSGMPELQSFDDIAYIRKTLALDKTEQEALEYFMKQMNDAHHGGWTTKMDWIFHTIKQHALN
Chain of UniProt P42336 (P27986 whole entry partner): as the sequence (P27986 whole entry partner) above
Chain of UniProt O14965 (O14965 whole entry): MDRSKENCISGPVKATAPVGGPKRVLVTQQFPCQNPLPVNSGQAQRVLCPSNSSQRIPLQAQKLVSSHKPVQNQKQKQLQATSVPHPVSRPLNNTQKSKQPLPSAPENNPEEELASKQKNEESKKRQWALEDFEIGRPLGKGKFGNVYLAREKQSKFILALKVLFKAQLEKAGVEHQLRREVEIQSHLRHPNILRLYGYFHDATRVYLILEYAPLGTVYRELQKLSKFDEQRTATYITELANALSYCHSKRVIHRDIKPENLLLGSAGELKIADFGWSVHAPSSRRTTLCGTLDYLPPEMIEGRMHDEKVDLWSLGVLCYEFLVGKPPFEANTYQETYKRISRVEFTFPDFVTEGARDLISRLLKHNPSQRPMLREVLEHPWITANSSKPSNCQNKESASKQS

Compound	pIC50 [1]	selectivity over Aurora B [1]	pIC50 [2]	pIC50 [3]	pIC50 [4]	selectivity over Aurora A [4]	pIC50 [5]	selectivity for PI3K-δ over PI3K-β [5]	pIC50 [6]	pIC50 [7]	pIC50 [8]	selectivity for PI3K-δ over PI3K-α [8]	selectivity score S10 [9]	pIC50 [10, 15]	pIC50 [11]	inhibition of PI3K-δ signaling (AKT and S6RP phosphorylation) [12]	pIC50 [13]	other results
Cc1ccc2c(c1)C(=O)N(C)c1cnc(Nc3cccc(S(=O)(=O)N4CCC(O)CC4)c3)nc1N2C [Compound 12, 2-((3-((4-hydroxypiperidin-1-yl)sulfonyl)phenyl)amino)-5,8,11-trimethyl-5,11-dihydro-6H-benzo[e]pyrimido[5,4-b][1,4]diazepin-6-one]	6.82	72 fold	6.00	4.97	6.82	72 fold	5.32	2262 fold	5.85	< 5.00	7.26	26 fold	0.008	5.89	6.46	comparable inhibition of, and selectivity for, PI3K-δ signaling	6.21	–
CCC(=O)N1CCN(S(=O)(=O)c2cccc(Nc3ncc4c(n3)N(C)c3ccc(C)cc3C(=O)N4C)c2)CC1 [Compound 9, 5,8,11-trimethyl-2-((3-((4-propionylpiperazin-1-yl)sulfonyl)phenyl)amino)-5,11-dihydro-6H-benzo[e]pyrimido[5,4-b][1,4]diazepin-6-one]	6.93	59 fold	6.21	4.73	6.96	55 fold	6.21	305 fold	5.80	5.52	7.15	35 fold	0.010	5.92	6.14	comparable inhibition of, and selectivity for, PI3K-δ signaling	6.02	–
C=CC(=O)N1CCN(S(=O)(=O)c2cccc(Nc3ncc4c(n3)N(C)c3ccc(C)cc3C(=O)N4C)c2)CC1 [Compound 1, 2-((3-((4-acryloylpiperazin-1-yl)sulfonyl)phenyl)amino)-5,8,11-trimethyl-5,11-dihydro-6H-benzo[e]pyrimido[5,4-b][1,4]diazepin-6-one]	6.92	60 fold	–	5.22	7.23	30 fold	6.26	272 fold	–	–	7.28	26 fold	0.013	–	–	–	–	non-specific cysteine labeling of PI3K-δ [14]: no non-specific cysteine labeling was occurring; inhibition of other targets in the PI3K pathway (Akt, DNA-PK, BTK, mTOR) ([9]; KINOMEscan at 1 μM): not inhibited; inhibitory effects on PIP5K2C (PIP4K-γ) ([9]; KINOMEscan at 1 μM): some inhibitory effects; pIC50 ([10]; MOLT-4, T-ALL cell line, screening campaign, read-out: IC50 MOLT4 cells (antiproliferative activity)): 7.48

pIC50: −log10 of the molar value. Like-named read-outs stand apart in the source and are kept apart here.
